According to paper PMC4336329 (PLoS ONE, 2015):
The whole screen tested about 310,000 compounds, of which about 14,000 (4.5%) showed an effect of 50% or more. Effects have a minus sign here. Some of the results follow.

The compounds below were run against human ether-à-go-go-related gene (hERG) potassium channel (human, UniProt Q12809) (assay: primary screen, population patch clamp on CHO cells stably expressing hERG).
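Further: peak tail current of the secondary pulse compared with the same well before compound.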

Sequence of human ether-à-go-go-related gene (hERG) potassium channel (Q12809 whole entry, looked up): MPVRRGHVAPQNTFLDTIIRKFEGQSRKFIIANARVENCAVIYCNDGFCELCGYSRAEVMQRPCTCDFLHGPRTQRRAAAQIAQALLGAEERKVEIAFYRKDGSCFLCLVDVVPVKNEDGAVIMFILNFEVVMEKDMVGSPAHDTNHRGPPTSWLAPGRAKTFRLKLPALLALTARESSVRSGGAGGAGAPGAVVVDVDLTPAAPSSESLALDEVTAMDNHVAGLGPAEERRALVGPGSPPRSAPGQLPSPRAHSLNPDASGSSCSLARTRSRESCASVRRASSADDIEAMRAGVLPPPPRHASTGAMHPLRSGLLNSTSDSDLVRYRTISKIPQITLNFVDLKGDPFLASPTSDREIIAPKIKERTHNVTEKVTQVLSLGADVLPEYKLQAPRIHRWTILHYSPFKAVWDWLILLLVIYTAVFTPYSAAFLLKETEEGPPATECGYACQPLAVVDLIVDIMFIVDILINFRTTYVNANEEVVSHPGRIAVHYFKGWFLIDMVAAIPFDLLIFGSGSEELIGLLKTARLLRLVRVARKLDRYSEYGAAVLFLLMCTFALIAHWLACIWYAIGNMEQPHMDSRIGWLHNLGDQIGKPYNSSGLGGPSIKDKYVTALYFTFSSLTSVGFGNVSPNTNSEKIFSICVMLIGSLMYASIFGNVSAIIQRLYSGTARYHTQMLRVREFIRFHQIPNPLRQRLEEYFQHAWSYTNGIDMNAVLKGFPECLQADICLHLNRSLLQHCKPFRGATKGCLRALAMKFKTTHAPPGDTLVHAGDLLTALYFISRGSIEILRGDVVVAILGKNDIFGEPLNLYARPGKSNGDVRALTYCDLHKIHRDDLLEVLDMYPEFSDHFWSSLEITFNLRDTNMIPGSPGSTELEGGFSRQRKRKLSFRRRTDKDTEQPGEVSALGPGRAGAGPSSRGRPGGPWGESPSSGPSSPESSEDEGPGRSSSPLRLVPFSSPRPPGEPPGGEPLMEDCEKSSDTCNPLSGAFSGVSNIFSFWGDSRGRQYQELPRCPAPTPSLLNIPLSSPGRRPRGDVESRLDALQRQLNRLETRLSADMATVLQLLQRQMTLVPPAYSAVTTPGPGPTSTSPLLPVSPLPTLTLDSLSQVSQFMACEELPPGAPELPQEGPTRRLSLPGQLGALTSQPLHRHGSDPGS

Compound | hERG current change (%, negative = inhibition) at 10uM
COc1cccc(C(=O)Nc2ccc(S(=O)(=O)N3CCCCC3)cc2)c1OC | -1.04%
Cn1cc(C(=O)N2CCCC(Nc3ccc(F)cc3)C2)c2ccccc21 (stereo not drawn) | -21.1%
Cc1ccc(CC(=O)N2CC(C)OC(C)C2)cc1 (stereo not drawn) | 9.85%
Cc1ccc(S(=O)(=O)NCC2CCC(C(=O)NCCCN3CCOCC3)CC2)cc1 (stereo not drawn) | 10.8%
COc1cc(C(=O)NCc2nnc(SCC(=O)Nc3cc(C)on3)o2)cc(OC)c1OC | 16.6%
O=C(OCC(=O)N1CCOCC1)c1ccccc1SCC(=O)N1CCCC1 | 3.13%
CCCOc1ccc(C(CC(=O)O)NS(=O)(=O)c2ccc(NC(C)=O)cc2)cc1 (stereo not drawn) | 9.49%
CCc1nnc(NC(=O)c2ccc(N3C(=O)CCC3=O)cc2)s1 | 11.7%
Cc1ccc(NC(=S)Nn2cnnc2)cc1 | 14.5%
CN(C(=O)CN(CCO)CC(=O)N(C)C(C)(C)Cc1ccccc1)C(C)(C)Cc1ccccc1 | -3.95%
CCc1nnc(NC(=O)C2Cc3ccccc3CN2S(=O)(=O)c2cccs2)s1 (stereo not drawn) | 9.85%
CC(C)NC(C)Cc1ccc(I)cc1.Cl (stereo not drawn) | -38.2%
O=C(CSc1n[nH]c(=O)[nH]c1=O)c1ccccc1[N+](=O)[O-] | 16.4%
COc1ccc(NC(=O)COC(=O)c2ccc(-n3cnnn3)cc2)cc1Cl | 13.4%
COCCCNC(=S)NNC(=O)c1ccc(S(=O)(=O)N2CCC(C)CC2)cc1 | 11.8%
COc1ccc(CC(=O)O/N=C(\N)c2ccccc2)cc1OC | 6.1%
CC(=O)N(C)c1ccc(NC(=O)Nc2cccc3ccccc23)cc1 | -2.88%
Cc1ccc(Nc2nc(-c3ccc(C)cc3)c(CC(=O)O)s2)cc1 | 1.16%
Cc1ccc(-c2nnc(Nc3ccc(C(=O)N(C)C)cc3)c3ccccc23)cc1S(=O)(=O)NCC1CCCO1 (stereo not drawn) | -26.4%
CS(=O)(=O)NCCNC(=O)c1cc(OCC(F)(F)F)ccc1OCC(F)(F)F | -9.74%
COC(=O)CN1C(=O)[C@H]2[C@@H](c3ccc(C)o3)N3C(=O)CN(Cc4ccccc4)C(=O)[C@@]3(Cc3ccccc3)[C@H]2C1=O | -9.75%

Compound | hERG current change (%, negative = inhibition) at 10uM
COc1ccc(/C=N/n2cnc3c([nH]c4ccccc43)c2=O)cc1CO | 11.2%
CC1CCN(CCCCOc2ccc(Cl)cc2)CC1.O=C(O)C(=O)O | -71.7%
CN(C)CCCNC(=S)Nc1ccc(Br)cc1 | -11.6%
CCOc1ccc(C2CC(=O)N(Nc3ccc([N+](=O)[O-])cc3[N+](=O)[O-])C2=O)cc1 (stereo not drawn) | -51.7%
CCOC(=O)N1CCC(N2CC34C=CC(O3)C(C(=O)Nc3ccc(OCC)cc3)C4C2=O)CC1 (stereo not drawn) | -18.7%
CCOc1cc(C(=S)N2CCN(C)CC2)ccc1OCC(=O)N1CCOCC1 | 12.2%
CN(C)c1ccc(CNCc2cccnc2)cc1 | 7.68%
CC(C)(C)OC(=O)NCCC(=O)N/N=C/c1cccc2cccnc12 | -0.667%
Cn1c(Oc2ccc3c(c2)OCO3)nc2c1c(=O)n(Cc1ccccc1)c(=O)n2C | 13.6%
COC(=O)C/C=N/N=C1/NC(=O)/C(=C/C(=O)O)S1 | 16%
COc1ccc(Cl)cc1S(=O)(=O)N1CCN=C1C | -2.74%
O=C1/C(=C/c2cccnc2)SC(=S)N1c1ccc(O)cc1 | 12%
COc1ccc(S(=O)(=O)N2CCCCC2)cc1NC(=O)Cn1c(=O)cnc2ccccc21 | -10.6%
Nc1nc(Nc2ccccc2)n[nH]1 | 8.15%
COc1ccc(CCNC(=O)CCCN2C(=O)C(c3ccccc3)Oc3cccnc32)cc1OC (stereo not drawn) | -15.9%
O=C(CSc1ncn(-c2ccccc2)n1)Nc1nc2ccccc2s1 | 7.04%
O=c1[nH][nH]c2cc(=O)n(-c3cccc(C(F)(F)F)c3)nc12 | 4.36%
COC(=O)c1ccc(NC(=O)CSc2nncn2C)cc1 | 16.1%
CN(Cc1ccccc1)C(=C(Cl)Cl)/C(=C1/NCCN1C)[N+](=O)[O-] | 24.6%
O=C(/C=N/O)NCc1ccncc1 | 14.5%
O=c1cccc2n1C[C@H]1C[C@@H]2CN2CCCC[C@@H]12 | 7.74%

Compound | hERG current change (%, negative = inhibition) at 10uM
COc1cc2[nH]c(=O)n(CCCC(=O)N3CC=C(c4ccccc4)CC3)c(=O)c2cc1OC | -12.9%
CN1CCN(C(c2ccc(F)cc2)c2nnnn2Cc2cccs2)CC1.Cl (stereo not drawn) | -21%
CN(C)CC/C=C1\c2ccc(F)cc2Sc2cc(F)c(Cl)cc21.Cl | -37.6%
Cn1nc(CSc2ccccc2)c(C=O)c1Cl | 8.12%
CCOc1cccc(C(=O)Nc2cccc(-c3nc4ncccc4o3)c2C)c1 | -22.9%
C=C(C)COc1ccc(-c2[nH]ncc2-c2ccc(OC)c(OC)c2)c(O)c1 | -0.891%
Cc1ccc(C(C)C)c(OC(=O)/C=C/c2ccccc2)c1 | 9.52%
Cc1cc(C)cc(C(=O)NC(CC(N)=O)c2ccc(NC3CCCCCC3)c([N+](=O)[O-])c2)c1 (stereo not drawn) | 1.73%
CCCn1c(CN2CCN(C(=O)OCC)CC2)nc2cc(NC(=O)CC)ccc21 | 0.0715%
Cn1c(CCN2CCCCC2)nc2cc(NC(=O)COc3ccccc3)ccc21 | -78%
COC(=O)c1cc(=O)c2c([N+](=O)[O-])ccc(OC)c2o1 | -1.62%
CCCCN(CCCC)CC1OCc2ccccc2CO1 | -33.9%
Cl.NC(N)=Nc1nc(-c2ccccc2)c2cc(Cl)ccc2n1 | -67.9%
COc1cccc(Cn2nnc(C(=O)NCc3ccc4c(c3)OCO4)c2N)c1 | -11.9%
COc1ccc(C(O)(C2CCCCC2)C(CN2CCOCC2)c2ccccc2)cc1.Cl (stereo not drawn) | 8.74%
O=C(Cn1nc(-c2ccc(F)cc2)ccc1=O)Nc1ccc(C(=O)NC2CC2)cc1 | -38.3%
Cc1cc(C(=O)Nc2c(C)nn(Cc3ccc(F)cc3)c2C)on1 | -5.54%
COC(=O)c1c(NC(=O)c2cccc(N3C(=O)CCC3=O)c2)sc2c1CCN(C(C)=O)C2 | 6.74%
Cc1cccc(NC(=S)N=Nc2c(O)[nH]c3ccccc23)c1 | 4.04%
Cc1ccc(CNC(=O)CSc2nc(N3CCCCC3)nc(N3CCCCC3)n2)cc1 | 7.64%
COc1ccccc1S(=O)(=O)Cc1ccc(C(=O)N2CCCC2)o1 | 8.21%

Compound | hERG current change (%, negative = inhibition) at 10uM
CCCN1CNC(=S)N(c2ccccc2OC)C1 | -0.472%
CS(=O)(=O)N(CC(=O)O)c1ccc(Oc2ccccc2)cc1 | 16.6%
COc1ccc(/C=C2\OC(=S)N(C)C2=O)cc1 | 15.2%
CCCCOCCCn1c(N)c(C(=O)OCCOC)c2nc3ccccc3nc21 | -32.9%
NC(=O)C1Cc2ccccc2CN1C(=O)c1nn(Cc2ccccc2)c(=O)c2ccccc12 (stereo not drawn) | -29.3%
Cc1ccc(S(=O)(=O)N(CC(=O)N2CCc3ccccc3C2)c2cccc(Cl)c2)cc1 | 5.73%
COc1ccc2c(C)c(CC(=O)N3C[C@H]4C[C@@H](C3)c3cccc(=O)n3C4)c(=O)oc2c1C | -3.48%
COc1cc2c(C(=O)N3CCN(C)CC3)c(C)oc2cc1Br | -25.8%
CCN(CC)CC(=O)N1c2ccccc2CCc2ccc(NC(=O)c3cc(OC)c(OC)c(OC)c3)cc21 | 1%
COc1ccc(C(=O)NC(=S)NNC(=O)c2ccccc2O)cc1 | 19.4%
C#CCOCCOCCOCCNc1nc(N2CCN(C(=O)CCCCCCCCCCNC(=O)[C@H]([C@@H](C)CC)n3cc(CCCCN=C(N)N)nn3)CC2)nc(N2CCN(C(=O)CCCCCCCCCCNC(=O)[C@@H]([C@H](C)O)n3cc(C)nn3)CC2)n1 | 12.8%
NS(=O)(=O)c1ccc(NC(=O)COC(=O)c2cnccn2)cc1 | 16.1%
C#CC(CC)(CC)NC(=O)c1nn(-c2ccccc2Cl)c(C)cc1=O | 9.07%
CC(C)CCNC(=O)C(c1ccco1)N(C(=O)Cn1nnc2ccccc21)c1ccc2c(c1)OCO2 (stereo not drawn) | -3.12%
COc1ccc(N/C(=C(/C(Cl)=C(Cl)Cl)[N+](=O)[O-])n2nnc3ccccc32)cc1OC | 10.1%
COCCn1c(N)c(N(Cc2ccccc2)C(=O)C2CCCC2)c(=O)[nH]c1=O | 15%
O=C(CCCOc1ccccc1)n1nnc2ccccc21 | 11.3%
O=C(CN1CCN(C(=O)C2CCCO2)CC1)Nc1cc(Cl)ccc1Cl (stereo not drawn) | -61.9%
COc1ccc(C(=O)NC(=S)Nc2ccc(N3CCOCC3)cc2)cc1Cl | 10.6%
COc1ccc(CN2C(=O)c3cccnc3C2=O)cc1S(=O)(=O)N(C)c1cccc(C)c1 | -35.8%
O=C(c1ccc(Cl)c(S(=O)(=O)N2CCCC2)c1)N1CCN(c2ccccc2)CC1 | -8.69%
